Data taken from PubChem BioAssay AID488969 (Vanderbilt High Throughput Screening Facility, 2010).
Whole data set: some 110,000 compounds, median “z-score” near -0.1, cut for the highest 2% near 2. The list shows a part of the results. The source made the active and inactive calls.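 The calls were made as follows: active = z-score in the third read window above 3 or below -3; inactive = the rest.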

target: Metabotropic glutamate receptor 8 (Rattus norvegicus) (UniProt P70579); test: mGluR8 Gi/Go-coupled signaling modulation – cell-based, rat, thallium flux, HTS, primary screen (AID 488969); conditions: HEK293 rat mGluR8, GIRK (G protein-gated inwardly rectifying potassium channel) thallium flux, FluoZin2; at 10 µM; stronger effect = higher value; submaximal glutamate (EC20) added with thallium
UniProt P70579, sequence (P70579 whole entry, looked up): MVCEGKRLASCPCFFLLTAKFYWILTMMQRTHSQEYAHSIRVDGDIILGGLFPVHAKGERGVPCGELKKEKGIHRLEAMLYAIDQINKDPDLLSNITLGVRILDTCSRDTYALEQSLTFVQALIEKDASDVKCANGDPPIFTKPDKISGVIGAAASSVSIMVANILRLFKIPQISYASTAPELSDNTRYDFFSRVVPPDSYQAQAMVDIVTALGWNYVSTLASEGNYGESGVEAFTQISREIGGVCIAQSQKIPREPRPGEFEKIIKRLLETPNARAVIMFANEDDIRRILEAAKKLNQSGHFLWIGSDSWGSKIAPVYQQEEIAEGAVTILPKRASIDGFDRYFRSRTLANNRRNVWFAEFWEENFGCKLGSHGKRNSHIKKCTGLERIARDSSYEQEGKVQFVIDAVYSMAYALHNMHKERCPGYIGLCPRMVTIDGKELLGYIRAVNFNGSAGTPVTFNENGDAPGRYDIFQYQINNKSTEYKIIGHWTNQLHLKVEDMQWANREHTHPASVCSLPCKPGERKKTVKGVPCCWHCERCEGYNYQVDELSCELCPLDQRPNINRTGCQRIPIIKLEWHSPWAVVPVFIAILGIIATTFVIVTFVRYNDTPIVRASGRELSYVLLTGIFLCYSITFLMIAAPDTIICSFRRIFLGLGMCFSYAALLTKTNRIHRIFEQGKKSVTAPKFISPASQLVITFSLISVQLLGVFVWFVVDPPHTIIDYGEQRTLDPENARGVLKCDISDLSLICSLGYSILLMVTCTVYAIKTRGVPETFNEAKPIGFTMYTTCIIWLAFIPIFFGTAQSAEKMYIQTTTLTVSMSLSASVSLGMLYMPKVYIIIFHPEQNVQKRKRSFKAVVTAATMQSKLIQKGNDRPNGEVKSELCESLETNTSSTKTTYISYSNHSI

Point of comparison: `CNCc1ccccc1Sc1cccc(O)c1`, z-score 0.252. Against it:
- Cc1cccc(N2C(=O)CC(SC(=Nc3ccccc3)Nc3ccccc3)C2=O)c1 (stereo unspecified) — lower, -0.184
- Cc1ccc(-c2nc(N/N=C/c3cccc([N+](=O)[O-])c3)c3ccccc3n2)cc1 — lower, -0.0526
- CCc1ccc(C(=O)CC2(O)C(=O)N(CN3CCOCC3)c3ccccc32)cc1 (stereo unspecified) — lower, -0.735
- OCCCCNCc1ccc(OCc2ccc(Cl)cc2)cc1 — higher, 0.823
- CC(C)(O)C#Cc1ccc(C(=O)NCc2ccccc2)s1 — lower, -0.37
- COc1ccc(CCNC(=O)c2ccc(CS(=O)(=O)c3ccc(C)cc3)o2)cc1OC — lower, 0.126
- CCOC(=O)c1cc(-c2ccccc2)sc1N — lower, -0.122
- CCCOC(=S)N/C(=N\S(=O)(=O)c1ccccc1)c1ccccc1 — higher, 1.24
- CCC(=O)NC(=S)Nc1ccc(NC(=O)c2cccc([N+](=O)[O-])c2C)cc1 — lower, -0.473
- CCn1cc(C(=O)OCC(=O)c2cc(C)n(-c3cccc(C(F)(F)F)c3)c2C)c(=O)c2ccc(C)nc21 — lower, -2.43
- COc1cc(OC)cc(-c2cc3nc(C)c(CCC(=O)O)c(C)n3n2)c1 — lower, -0.456
- CCN(CC)C(=O)Nc1ccccc1C — lower, -0.262
- COc1ccc(-c2cnc(SCC(=O)Nc3ccc4c(c3)OCO4)n2Cc2ccco2)cc1 — lower, -0.0521
- CCN(CC(=O)NC1CCS(=O)(=O)C1)c1ccc(S(C)(=O)=O)cc1[N+](=O)[O-] (stereo unspecified) — higher, 0.469
- O=C(CN1CCN(C2CCCCC2)CC1)c1ccc2cc[nH]c2c1 — lower, 0.203
- COc1ccccc1C1C=C(c2ccc(C)cc2)Nc2nnnn21 (stereo unspecified) — lower, -0.129
- COc1ccc(-n2c(C)c([N+](=O)[O-])c3ccc(O)c(CN(C)C)c32)cc1 — lower, -0.741
- Cc1noc(C)c1C(=O)NCCc1ccccc1 — higher, 0.33
- Cc1ccc(S(=O)(=O)N2CCCSCC2)cc1 — higher, 0.552
- COc1ccc(S(=O)(=O)NC(C)C)cc1C(=O)NC1CCCCC1 — lower, -0.176
- O=C(Nc1cccc2c1C(=O)NC2=O)c1ccc(S(=O)(=O)N2CCCC2)cc1 — lower, -0.0355
- CCSc1nnc(NC(=O)C(C)(C(F)(F)F)C(F)(F)F)s1 — lower, -0.3
- CCc1c(O)nc2sc3ccccc3n2c1=O — lower, -0.0995
- COC(=O)c1ccc(C(=O)OC)c(NC(=O)CSCc2ccc(Cl)cc2)c1 — lower, -0.149
- COC(=O)c1ccccc1NC(=O)CN(C1CCCCC1)S(C)(=O)=O — lower, -0.133
- CCOc1ccc2c(c1)OC(c1ccccc1)(C(F)(F)F)NC2=O (stereo unspecified) — lower, -0.247
- FC(F)Sc1ccc(NC(=S)NCC2CCCCC2)cc1 — lower, -0.233
- CCOc1ccc(C(N)=O)cc1OC — lower, -0.083
- O=C(NCC1CCC(C(=O)O)CC1)c1cccnc1 (stereo unspecified) — higher, 1.63

In the case of `CCOC(=O)Cc1csc(NC(=S)NC(=O)c2ccccc2)n1`, the z-score is reported as active: 10.6.
